# This is one part of the list.
# Columns and labels:
# Assay in all cases: glycan array binding signal (z-score within array); higher = stronger binding
# Conditions in all cases: glycan notation: IUPAC condensed, linker removed
# [1] = molecular target: Gal(b1-4)GlcNAc(b1-2)Man(a1-6)[GlcNAc(b1-2)Man(a1-3)]Man(b1-4)GlcNAc(b1-4)GlcNAc
# Outline: (§1)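 The binding signal is a Z-score computed within each array and averaged over linkers. Arrays of the same protein sequence at different concentrations or buffers were also averaged together. Data originate from 3228 arrays in the Consortium for Functional Glycomics database, kept only where the protein sequence was available.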
# [2] = molecular target: Gal(b1-4)GlcNAc(b1-2)Man(a1-6)[Man(a1-3)]Man(b1-4)GlcNAc(b1-4)GlcNAc
# Outline: as §1
# [3] = molecular target: Gal(b1-4)GlcNAc(b1-2)[Gal(b1-4)GlcNAc(b1-4)]Man(a1-3)[Gal(b1-4)GlcNAc(b1-2)Man(a1-6)]Man(b1-4)GlcNAc(b1-4)GlcNAc
# Outline: as §1
# [4] = molecular target: Gal(b1-4)GlcNAc(b1-2)[Gal(b1-4)GlcNAc(b1-4)]Man(a1-3)[Gal(b1-4)GlcNAc(b1-2)[Gal(b1-4)GlcNAc(b1-6)]Man(a1-6)]Man(b1-4)GlcNAc(b1-4)GlcNAc
# Outline: as §1
# [5] = molecular target: Gal(b1-4)GlcNAc(b1-2)[Gal(b1-4)GlcNAc(b1-4)]Man(a1-3)[GlcNAc(b1-4)][Gal(b1-4)GlcNAc(b1-2)Man(a1-6)]Man(b1-4)GlcNAc(b1-4)GlcNAc
# Outline: as §1
# [6] = molecular target: Gal(b1-4)GlcNAc(b1-2)[Gal(b1-4)GlcNAc(b1-4)]Man(a1-3)[GlcNAc(b1-4)][Gal(b1-4)GlcNAc(b1-2)[Gal(b1-4)GlcNAc(b1-6)]Man(a1-6)]Man(b1-4)GlcNAc(b1-4)GlcNAc
# Outline: as §1
# [7] = molecular target: Gal(b1-4)GlcNAc(b1-2)[Gal(b1-4)GlcNAc(b1-6)]Man(a1-6)[Gal(b1-4)GlcNAc(b1-2)Man(a1-3)]Man(b1-4)GlcNAc(b1-4)GlcNAc
# Outline: as §1
# [8] = molecular target: Gal(b1-4)GlcNAc(b1-2)[Gal(b1-4)GlcNAc(b1-6)]Man(a1-6)[Gal(b1-4)GlcNAc(b1-2)Man(a1-3)]Man(b1-4)GlcNAc(b1-4)[Fuc(a1-6)]GlcNAc
# Outline: as §1
# [9] = molecular target: Gal(b1-4)GlcNAc(b1-2)[Gal(b1-4)GlcNAc(b1-6)]Man(a1-6)[GlcNAc(b1-4)][Gal(b1-4)GlcNAc(b1-2)Man(a1-3)]Man(b1-4)GlcNAc(b1-4)GlcNAc
# Outline: as §1
# [10] = molecular target: Gal(b1-4)GlcNAc(b1-2)[Gal(b1-4)GlcNAc(b1-6)]Man(a1-6)[GlcNAc(b1-4)][Gal(b1-4)GlcNAc(b1-2)[Gal(b1-4)GlcNAc(b1-4)]Man(a1-3)]Man(b1-4)GlcNAc(b1-4)[Fuc(a1-6)]GlcNAc
# Outline: as §1
# [11] = molecular target: Gal(b1-4)GlcNAc(b1-3)Gal(b1-3)GalNAc
# Outline: as §1
# [12] = molecular target: Gal(b1-4)GlcNAc(b1-3)Gal(b1-3)GlcNAc
# Outline: as §1
# [13] = molecular target: Gal(b1-4)GlcNAc(b1-3)Gal(b1-4)Glc
# Outline: as §1
# [14] = molecular target: Gal(b1-4)GlcNAc(b1-3)Gal(b1-4)GlcNAc
# Outline: as §1
# [15] = molecular target: Gal(b1-4)GlcNAc(b1-3)Gal(b1-4)GlcNAc(b1-2)Man(a1-3)[Gal(b1-4)GlcNAc(b1-3)Gal(b1-4)GlcNAc(b1-2)Man(a1-6)]Man(b1-4)GlcNAc(b1-4)GlcNAc
# Outline: as §1
# [16] = molecular target: Gal(b1-4)GlcNAc(b1-3)Gal(b1-4)GlcNAc(b1-2)Man(a1-3)[Gal(b1-4)GlcNAc(b1-3)Gal(b1-4)GlcNAc(b1-2)Man(a1-6)]Man(b1-4)GlcNAc(b1-4)[Fuc(a1-6)]GlcNAc
# Outline: as §1
# [17] = molecular target: Gal(b1-4)GlcNAc(b1-3)Gal(b1-4)GlcNAc(b1-2)[Gal(b1-4)GlcNAc(b1-3)Gal(b1-4)GlcNAc(b1-6)]Man(a1-6)[Gal(b1-4)GlcNAc(b1-3)Gal(b1-4)GlcNAc(b1-2)Man(a1-3)]Man(b1-4)GlcNAc(b1-4)GlcNAc
# Outline: as §1
# [18] = molecular target: Gal(b1-4)GlcNAc(b1-3)Gal(b1-4)GlcNAc(b1-2)[Gal(b1-4)GlcNAc(b1-3)Gal(b1-4)GlcNAc(b1-6)]Man(a1-6)[Gal(b1-4)GlcNAc(b1-3)Gal(b1-4)GlcNAc(b1-2)Man(a1-3)]Man(b1-4)GlcNAc(b1-4)[Fuc(a1-6)]GlcNAc
# Outline: as §1
# [19] = molecular target: Gal(b1-4)GlcNAc(b1-3)Gal(b1-4)GlcNAc(b1-3)Gal(b1-4)GlcNAc
# Outline: as §1
# [20] = molecular target: Gal(b1-4)GlcNAc(b1-3)Gal(b1-4)GlcNAc(b1-3)Gal(b1-4)GlcNAc(b1-2)Man(a1-3)[Gal(b1-4)GlcNAc(b1-3)Gal(b1-4)GlcNAc(b1-3)Gal(b1-4)GlcNAc(b1-2)Man(a1-6)]Man(b1-4)GlcNAc(b1-4)GlcNAc
# Outline: as §1
# [21] = molecular target: Gal(b1-4)GlcNAc(b1-3)Gal(b1-4)GlcNAc(b1-3)Gal(b1-4)GlcNAc(b1-2)Man(a1-3)[Gal(b1-4)GlcNAc(b1-3)Gal(b1-4)GlcNAc(b1-3)Gal(b1-4)GlcNAc(b1-2)Man(a1-6)]Man(b1-4)GlcNAc(b1-4)[Fuc(a1-6)]GlcNAc
# Outline: as §1
# [22] = molecular target: Gal(b1-4)GlcNAc(b1-3)Gal(b1-4)GlcNAc(b1-3)Gal(b1-4)GlcNAc(b1-2)[Gal(b1-4)GlcNAc(b1-3)Gal(b1-4)GlcNAc(b1-3)Gal(b1-4)GlcNAc(b1-6)]Man(a1-6)[Gal(b1-4)GlcNAc(b1-3)Gal(b1-4)GlcNAc(b1-3)Gal(b1-4)GlcNAc(b1-2)Man(a1-3)]Man(b1-4)GlcNAc(b1-4)[Fuc(a1-6)]GlcNAc
# Outline: as §1
binder,measurement,setting,value
"CFEM-CGl (Candida glabrata), Q6FRS0 (protein) VLATPPACLLACVAQVSKQSSQCHTLNQVGCFCENENTAIKNCLDSICPNGNSDAAYTAFKNSCGDVGKAVASV",glycan array binding signal (z-score),[1],-0.319
same,glycan array binding signal (z-score),[2],-0.336
same,glycan array binding signal (z-score),[3],0.018
same,glycan array binding signal (z-score),[4],-0.351
same,glycan array binding signal (z-score),[5],-0.374
same,glycan array binding signal (z-score),[6],-0.386
same,glycan array binding signal (z-score),[7],-0.525
same,glycan array binding signal (z-score),[8],-0.262
same,glycan array binding signal (z-score),[9],-0.456
same,glycan array binding signal (z-score),[10],-0.322
same,glycan array binding signal (z-score),[11],-0.021
same,glycan array binding signal (z-score),[12],0.044
same,glycan array binding signal (z-score),[13],-0.186
same,glycan array binding signal (z-score),[14],-0.288
same,glycan array binding signal (z-score),[15],4.99
same,glycan array binding signal (z-score),[16],0.055
same,glycan array binding signal (z-score),[17],0.983
same,glycan array binding signal (z-score),[18],0.121
same,glycan array binding signal (z-score),[19],-0.333
same,glycan array binding signal (z-score),[20],1.2
same,glycan array binding signal (z-score),[21],0.099
same,glycan array binding signal (z-score),[22],0.152

# Reference: the supplement of paper PMC8728848
